PMC4336329 (PLoS ONE, 2015)
Among all 310,000 compounds or so, about 14,000 (4.5%) showed an effect of 50% or more. Effects have a minus sign here. This is one part of the list.

These compounds were tested against human ether-à-go-go-related gene (hERG) potassium channel (human, UniProt Q12809) (assay: primary screen, population patch clamp on CHO cells stably expressing hERG).
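Also: peak tail current of the secondary pulse compared with the same well before compound.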

Sequence of human ether-à-go-go-related gene (hERG) potassium channel (Q12809 whole entry, looked up): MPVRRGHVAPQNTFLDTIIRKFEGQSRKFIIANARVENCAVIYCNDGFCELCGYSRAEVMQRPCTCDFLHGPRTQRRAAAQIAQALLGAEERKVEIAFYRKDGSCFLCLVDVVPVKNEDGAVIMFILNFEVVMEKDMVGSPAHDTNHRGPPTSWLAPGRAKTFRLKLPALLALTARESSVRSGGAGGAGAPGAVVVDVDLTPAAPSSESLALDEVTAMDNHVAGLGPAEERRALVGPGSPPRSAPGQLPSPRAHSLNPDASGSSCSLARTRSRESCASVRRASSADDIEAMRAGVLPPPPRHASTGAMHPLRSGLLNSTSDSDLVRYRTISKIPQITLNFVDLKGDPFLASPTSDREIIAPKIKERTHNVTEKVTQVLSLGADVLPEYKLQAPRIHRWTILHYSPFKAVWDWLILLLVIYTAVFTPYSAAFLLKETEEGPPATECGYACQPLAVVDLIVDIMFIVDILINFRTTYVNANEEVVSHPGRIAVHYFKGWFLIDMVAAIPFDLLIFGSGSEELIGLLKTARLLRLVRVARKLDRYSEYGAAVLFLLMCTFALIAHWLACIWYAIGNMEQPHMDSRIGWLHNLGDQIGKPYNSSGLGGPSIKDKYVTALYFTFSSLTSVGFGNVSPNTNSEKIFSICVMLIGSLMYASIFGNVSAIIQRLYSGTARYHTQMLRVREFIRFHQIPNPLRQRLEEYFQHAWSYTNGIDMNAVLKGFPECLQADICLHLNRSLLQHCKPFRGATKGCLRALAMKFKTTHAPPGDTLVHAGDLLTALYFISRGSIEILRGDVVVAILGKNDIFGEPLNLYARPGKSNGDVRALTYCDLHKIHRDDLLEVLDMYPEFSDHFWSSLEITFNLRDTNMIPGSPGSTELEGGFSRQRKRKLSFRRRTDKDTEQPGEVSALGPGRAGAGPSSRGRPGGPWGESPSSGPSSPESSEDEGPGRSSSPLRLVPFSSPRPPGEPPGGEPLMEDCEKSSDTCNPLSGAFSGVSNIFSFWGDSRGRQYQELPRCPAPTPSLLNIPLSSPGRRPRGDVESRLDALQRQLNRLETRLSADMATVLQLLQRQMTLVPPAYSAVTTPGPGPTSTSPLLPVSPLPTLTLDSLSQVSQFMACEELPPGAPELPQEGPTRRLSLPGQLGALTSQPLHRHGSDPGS

SMILES	hERG current change (%, negative = inhibition) at 10uM
COc1ccc(N=CC2=C(O)c3ccccc3C2=O)c(OC)c1	-7.43%
CC1=C(C(=O)OCC2CCCO2)C(c2ccsc2)C2=C(CCCC2=O)N1 (centres unmarked)	-9.68%
COCc1cc(=O)[nH]c(/N=C(\N)Nc2c(F)cccc2F)n1	1.97%
COc1ccc(CNC(=O)/C(C#N)=C/c2cccc(OC)c2OC)cc1	-11.6%
O=C(COC(=O)C1CCCC1)Nc1ncc(Cl)cc1Cl	5.91%
O=C(N/C(=C/c1ccccc1)C(=O)N1CCCCCC1)c1ccccc1	-12.4%
COc1ccc(NC(=O)COC(=O)C2CCC2)cc1Cl	13.2%
O=C(Nc1ccccc1)N(C1=NCCC1)c1ccccc1	-5.01%
COc1ccc(C(CNC(=O)Cn2[nH]c(=O)c3ccccc3c2=O)N2CCCC2)cc1 (centres unmarked)	-0.499%
O=C(CN1CCN(c2ccccc2O)CC1)Nc1ccnn1C1CCCC1	3.74%
Cc1cc(NC(=O)c2cccc(S(=O)(=O)N3CCOCC3)c2)no1	11.1%
Nc1nonc1-n1nnc(C(=O)N/N=C/c2ccc(F)cc2)c1-c1cccs1	15.2%
CCc1ccc(S(=O)(=O)NC(CC(=O)O)c2ccccc2)cc1 (centres unmarked)	-6.2%
CN(C)NC(=S)Nc1ccc(S(=O)(=O)N2CCCCC2)cc1	-5.26%
O=C(CN1C(=O)c2ccccc2S1(=O)=O)NCCSC1CCCCC1	-24.7%
CCC(=O)N1CCc2cc(S(=O)(=O)NCCCN(CC)Cc3ccccc3)ccc21	-3.81%
COc1ccc(OC)c(NC(=O)c2cccc3c2C(=O)N(C2CCCCC2)C3)c1	-0.53%
O=C(CN1C(=O)CSc2ccc(S(=O)(=O)N3CCOCC3)cc21)NCc1ccc(F)cc1	-27.6%
COc1ccc(NC(=O)c2cccnc2N2CCOCC2)cc1	50.5%
COc1ccc(NC(=O)CCNC(=O)Cn2ccc3ccccc3c2=O)cc1Cl	18.1%
CC(OC(=O)Cn1cnc2c1c(=O)n(C)c(=O)n2C)C(=O)Nc1ccc(Cl)cc1 (centres unmarked)	-36.6%
CCc1cc(C(=O)Cc2nc3ccccc3s2)c(O)cc1OCC(=O)O	12.1%

SMILES	hERG current change (%, negative = inhibition) at 10uM
COc1ccccc1Nc1nnc(SCC(=O)NC2CC2)s1	-8.45%
COc1ccc(OC)c(C(c2nnnn2CCC(C)C)N2CCN(C(=O)c3ccco3)CC2)c1 (centres unmarked)	-42.2%
CCc1nc2ccccc2n1CC(=O)N1CCN(S(=O)(=O)c2cccc(C(F)(F)F)c2)CC1	-47.3%
CCOc1ccc(NC(=O)c2ccc(NC(=O)c3ccc(CN4CCOCC4)cc3)cc2)cc1	9.33%
Cc1cccc(C(=O)NCc2nnc(SCC(=O)Nc3nncs3)n2C)c1	-5.67%
CC1CCCN(C(=O)CSCC(=O)N=c2sc3ccccc3n2C)C1 (centres unmarked)	-9.28%
CC(C)CC(=O)c1c[nH]c(C(=O)NCc2ccccc2)c1	12.8%
CCCCCNC(=O)N[C@H](C(=O)O)C(C)C	-2.69%
Cc1cc(C)c(C)c(S(=O)(=O)N2CCN(C(=O)CCc3nc4ccccc4c(=O)[nH]3)CC2)c1C	-7.74%
COc1cccc(N2CCN(c3ncnc4c3[nH]c3ccc(F)cc34)CC2C)c1 (centres unmarked)	-5.82%
O=C(C1CCCC1)N1CCN=C1SCc1cccc([N+](=O)[O-])c1	-19.3%
COc1ccc(CCNC(=O)C2CCN(S(=O)(=O)c3ccc(C)cc3)CC2)cc1	0.741%
COc1ccccc1P(=O)(Cc1ccccc1[N+](=O)[O-])c1ccccc1 (centres unmarked)	-16.2%
[O-]/C(=C(\C(=S)NCc1ccc2c(c1)OCO2)[n+]1ccccc1)c1ccc(Cl)s1	20.7%
CCOc1nc(NCCO)nc(Nc2ccccc2F)n1	26.4%
Cc1noc(C)c1COc1ccc(C(=O)N2CCN(c3ccccc3O)CC2)cc1	-14.4%
CCCCCc1ccc(CC(=O)O)cc1	11.4%
CCCCc1c(C)nc2ccc(C(=O)OCC)cc2c1Cl	14.2%
Cc1ncoc1C(=O)N1CCCC(C(=O)c2ccc(-c3ccccc3)c(F)c2)C1 (centres unmarked)	-18.2%
O=C(NCc1cccnc1)c1ccc(COc2ccccc2Br)o1	-14.1%
O=C(Nc1nc2ccccc2[nH]1)c1ccc(F)c(S(=O)(=O)N2CCOCC2)c1	-50.3%
Cc1ccc(N/N=C2/CCCNC2=O)cc1	15.6%
